From patent EP4671282A1 (Jiangsu Hengrui Pharmaceuticals Co., Ltd., dated 2025)
Changes are numbered by the printed parent chain. Names and notes keep the numbering of the source. Where two headings read alike, the source gives them in different places. Each block holds one binder with its values, some of them ahead of it.

Tests used:
[1] = target: T1, human IL-36R full-length protein stably expressed on CHO-K1 cells (human, UniProt Q9HB29 20-575); assay: FACS, CHO-K1 cells overexpressing human IL-36R
T1 construct: FlpIn CHO-K1 line expressing the full-length protein; also called human IL-36R on the surface of CHO-K1 cells; CHO-K1 cells overexpressing human IL-36R
T1 sequence: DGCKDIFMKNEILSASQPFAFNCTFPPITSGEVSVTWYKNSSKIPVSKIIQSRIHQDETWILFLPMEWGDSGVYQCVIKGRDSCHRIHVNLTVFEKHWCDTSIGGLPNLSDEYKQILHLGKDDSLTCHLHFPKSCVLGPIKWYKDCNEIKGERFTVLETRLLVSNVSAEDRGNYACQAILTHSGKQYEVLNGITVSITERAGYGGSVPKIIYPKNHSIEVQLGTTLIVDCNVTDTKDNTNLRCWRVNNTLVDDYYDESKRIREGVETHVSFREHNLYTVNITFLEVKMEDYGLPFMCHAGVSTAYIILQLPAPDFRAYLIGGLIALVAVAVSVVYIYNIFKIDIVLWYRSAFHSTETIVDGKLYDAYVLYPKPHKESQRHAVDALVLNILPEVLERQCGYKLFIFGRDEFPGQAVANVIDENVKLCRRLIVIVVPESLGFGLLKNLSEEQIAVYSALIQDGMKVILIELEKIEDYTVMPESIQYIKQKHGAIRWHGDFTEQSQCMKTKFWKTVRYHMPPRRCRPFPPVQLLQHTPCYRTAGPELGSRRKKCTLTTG

[2] = target: T2, IL-36R on human skin squamous cell line A431 (human, UniProt Q9HB29 20-575); assay: cell-based or functional assay
T2 sequence (looked up): T1 sequence

[3] = target: T1, human IL-36R full-length protein stably …; assay: FACS, CHO-K1 cells overexpressing human IL-36R; remark: listed apart in the source
[4] = target: T1, human IL-36R full-length protein stably …; assay: FACS, CHO-K1 cells overexpressing human IL-36R; remark: listed apart in the source
[5] = target: T3, Human IL-36R protein (His + Avi Tag), Kactus IL1-HM4L2 (human, UniProt Q9HB29 20-335); assay: SPR (Biacore 8K), antibody captured by anti-human IgG Fc, IL-36R as analyte
T3 construct: Bought protein; also called human IL-36R antigen protein; Human IL-36R antigen
T3 sequence: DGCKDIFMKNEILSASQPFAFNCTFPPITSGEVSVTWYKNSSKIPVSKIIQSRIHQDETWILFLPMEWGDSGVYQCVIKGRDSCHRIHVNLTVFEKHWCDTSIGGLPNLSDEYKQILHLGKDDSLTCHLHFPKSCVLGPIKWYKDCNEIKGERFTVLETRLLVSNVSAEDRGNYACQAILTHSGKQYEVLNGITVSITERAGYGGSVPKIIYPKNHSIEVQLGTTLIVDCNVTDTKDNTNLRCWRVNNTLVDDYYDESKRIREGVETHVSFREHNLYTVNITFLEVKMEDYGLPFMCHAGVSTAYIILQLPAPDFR

IL-36α-induced A431 IL-8 secretion IC50 [2]: 0.14 nM
EC50 [3]: 0.63 nM
Maximum MFI [3]: 6950 MFI
EC50 [4]: 0.88 nM
Maximum MFI [4]: 6210 MFI
Kd [5]: 31.1 nM
koff [5]: 0.000146 s⁻¹
kon [5]: 4700 M⁻¹ s⁻¹
B2: VHH162_Hu11 VHH-Fc antibody (human IgG4 Fc, S228P) (Fc fusion)
chain: EVQLVESGGGLVQPGGSLRLSCAASGYSYRTQCLGWYRQAPGKQREAVATISGGGTSTYYSDSVKGRFTISQDNSKTTVYLQMNSLRAEDTAVYYCAKGLSVLGSWCHGGSSYEYTYSGQGTLVTVSS[sequence of human IgG4 Fc with S228P (EU numbers) omitted]
notes: VHH linked to human IgG4 Fc (hinge, S228P); no linker is named

IL-36α-induced A431 IL-8 secretion IC50 [2]: 0.13 nM
EC50 [3]: 0.53 nM
Maximum MFI [3]: 7780 MFI
EC50 [4]: 0.97 nM
Maximum MFI [4]: 7400 MFI
Kd [5]: 8.26 nM
koff [5]: 9.39e-05 s⁻¹
kon [5]: 11400 M⁻¹ s⁻¹
B5: VHH213_Hu07 VHH-Fc antibody (human IgG4 Fc, S228P) (Fc fusion)
chain: EVQLVESGGGLVQPGGSLRLSCAASGNTFSRYCMGWFRQAPGKELVGVAAIDSDGDTSYADSVEGRFTISRDNAKNTLYLQMNSLRAEDTAVYYCAADFTPSAPPRMGSGGYCFGDYWGQGTLVTVSS[sequence of human IgG4 Fc with S228P (EU numbers) omitted]
notes: as for B2

EC50 [1]: 0.57 nM
Maximum MFI [1]: 6920 MFI
B6: VHH213 VHH-Fc antibody (human IgG4 Fc, S228P) (Fc fusion)
chain: B5 chain with L11S, P14A, F29Y, L45R, V46E, R71K, R86K, A87P, V92M, L123Q
notes: as for B2

The remaining lines, values behind:

B1: VHH162_Hu09 VHH-Fc antibody (human IgG4 Fc, S228P) (Fc fusion)
chain: B2 chain with E1D, K98A
notes: as for B2
EC50 [1]: 0.48 nM
Maximum MFI [1]: 5340 MFI

B3: VHH162_Hu08 VHH-Fc antibody (human IgG4 Fc, S228P) (Fc fusion)
chain: B2 chain with E1D, A49S, S75A, K98A
notes: as for B2
EC50 [1]: 0.66 nM
Maximum MFI [1]: 6010 MFI

B4: VHH213_Hu01 VHH-Fc antibody (human IgG4 Fc, S228P) (Fc fusion)
chain: B5 chain with F29Y, R71K
notes: as for B2
EC50 [1]: 0.4 nM
Maximum MFI [1]: 7070 MFI
EC50 [3]: 0.41 nM
Maximum MFI [3]: 7670 MFI
